Assay results as given in PubChem BioAssay (NCATS).
Inconclusive results, whose numbers are uncertain, are shown with a selection of clear calls. A potency beside an inconclusive call is a rough fit, not a confirmed value. Calls of active or inactive are those of the source. Calls follow the shape of the dose curve; as a rule, active = well fitted cell-killing curve with a large enough effect; inconclusive = small, poorly fitted or top-dose-only effect, or effect the other way; inactive = no such curve, though single readings can be large or run the other way.
Potency is read from the fitted curve at half-maximal effect; tags tell the direction and shape of the fitted curve.

Assay: Viability qHTS for spleen associated tyrosine kinase inhibitor (SYKi) naive MV4-11 cells (AID 1963823); also: nearly all actives have a fitted effect of over 40% in size
Settings: MV4-11 AML viability, CellTiter-Glo luminescence, 72 h; viability (% of control): at 45 µM (top of the series)
Method in brief: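 SYK inhibitor-naive MV4-11 cells, 500 per well, exposed to compounds for 72 hr at 37 C, 5% CO2. Viability read as CellTiter-Glo luminescence after 10 min at room temperature.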
In the case of `CC(C)=CCc1c(O)cc2oc3cc(C)cc(O)c3c2c1C`, the Potency is reported as inconclusive: 23.1 µM [cytotoxic, single point].
In the case of `CCCCC(=O)OCC(=O)[C@]1(O)Cc2c(O)c3c(c(O)c2[C@@H](O[C@H]2C[C@H](NC(=O)C(F)(F)F)[C@H](O)[C@H](C)O2)C1)C(=O)c1c(OC)cccc1C3=O`, the Potency is reported as active: 0.148 µM.
For `C=C(C)C(=O)OC1C(OC(C)=O)/C(C=O)=C\CC/C(CO)=C/C2OC(=O)C(=C)C21` (stereo not given), the Potency was inconclusive: 1.78 µM [cytotoxic, full curve].
With `CN(C)S(=O)(=O)c1ccc2c(c1)/C(=C/c1cc3c([nH]1)CCCC3)C(=O)N2` the Potency was active: 0.82 µM.
With `CCC(=O)c1cc(-c2ccc(Cl)cc2)n(-c2ccc(S(N)(=O)=O)cc2)c1C` the Potency was active: 20.6 µM.
With `C=C[C@H]1[C@H](O[C@@H]2O[C@H](CO)[C@@H](O)[C@H](O)[C@H]2O)OC=C(C(=O)OC)[C@H]1C[C@@H]1c2cc(O)c(O)cc2CCN1C(C)=O` the “viability (% of control)” value was inactive: 80% [at 17.3 µM].
For `C[C@@]1(O)[C@H](O)[C@@H](CO)O[C@H]1n1cnc2c(=O)[nH]c(N)nc21`, the “viability (% of control)” value was inactive: 86.6%.
For `C[C@H]1[C@H](C)CC[C@]2(C(=O)OC3OC(CO)C(O)C(O)C3O)CC[C@]3(C(=O)O)C(=CCC4[C@@]5(C)CC[C@H](O[C@@H]6O[C@@H](C)[C@H](OC7OC(CO)C(O)C(O)C7O)[C@@H](O)[C@H]6O)C(C)(C)C5CC[C@]43C)[C@H]12` (stereo not given in full), the viability (% of control) was inactive: 80.8% [at 9.25 µM].
In the case of `O=C(Cc1ccc(Cl)cc1)Nc1cnccc1C(=O)O`, the “viability (% of control)” value is reported as inactive: 86.6%.
With `CC(C)(O)C1CCC(C)(C2CCC3(C)C4CCC5C(C)(C(=O)OC6OC(CO)C(O)C(O)C6O)C(O)CC(O)C56CC46CCC23C)O1` (stereo not given) the “viability (% of control)” value was inactive: 77.5% [at 17.3 µM].
